Measurements taken from the RNAGym collection of RNA variant scans (doi:10.1101/gad.245936.114).
This sample is rich in variants without activity.

B1: tRNA (parent)
chain: CUCUCGGUAGCCAAGUUGGUUUAAGGCGCAAGACUUUAAUUUAUCACUACGAAAUCUUGAGAUCGGGCGUUCGACUCGCCCCCGGGAGAUUUUUUCCUCGAGCAA

Variants of: B1
Assay: nonsense suppression (GFP-seq) (ratio to wild type); higher = more function; SUP4oc tRNA, yeast GFP reporter sort-seq
Method in brief: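 To measure nonsense suppression, tRNA variants from a library carrying ~3% random mutations were integrated into the yeast genome alongside RFP and a GFP ochre reporter under galactose control. Growth took place in raffinose/galactose medium supplemented with 80 mg/L adenine, followed by sorting into GFP/RFP bins and Illumina sequencing of each bin (phred ≥30). For each variant with ≥100 reads and ≥30 cells, the bin median GFP/RFP values were weighted by its estimated cell share per bin and referenced to the unmutated parent tRNA.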

Q: With CUCUCGGUAGCCAAGUUGGUUUAAGGCGCAAGACGUUAAUUUAUCACUACGAAAUCUUGAGAUCGCGCGUUCGACUCGCCCCCGGGAGAUUUUUUCCUCGAGCAA [U35G G66C] as the variant, how does the nonsense suppression read?
A: ≤ 0.026

Q: For CUCUCGGUAGCCAAGUUGGUUUAAGGCGCAAGACGUUAAUUUAUCACUACGAAAUCUUGAGAUCGCGCGUUCGACUCGCCCCCGGGAGCUUUUUUCCUCGAGCAA [U35G G66C A89C], which nonsense suppression is on record?
A: ≤ 0.026

Q: Which nonsense suppression does the source give for CUCUCGGUAGCCAAGUUGGUUUAAGGCGCAAGACUUUAAUUUAUCACUACGAACUCUUGAGAUCGGGCGUUCGAUUCGCCCCCGGGAGAUUUUUUCCUCGAGCAA [A54C C75U] here?
A: 1.22

Q: With CUCUCGGUAGCCAAGUUGGUUUAAGGCGCAAGACUUUAAUUUAUCACUACGAAGUCUUGAGAUCGGGCGUUAGACUCGCCCCCGGGAGAUUUUUUCCUCGAGCAA [A54G C72A] as the variant, how does the nonsense suppression read?
A: ≤ 0.026

Q: For CUCUCGGUAGCCAAGUUGGUUUAAGGCGCAAGACUUUAAUUUAUCACUACGAACUCCUGAGAUCAGGCGCUCGACUCGCCCCCGGGUGAUUUUUUCCUCGAGCAA [A54C U57C G65A U70C A87U], which nonsense suppression is on record?
A: ≤ 0.026

Q: With CUCUCGGUAGCCAAGUUGGUUUAAGGCGCAAGACUUUAAUUUAUCACUACGAACUCUUGAGACUGGGCGUUCGACUCGCCCCCGGGAGAUUUUUUCCUCGAGCAA [A54C U63C C64U] as the variant, how does the nonsense suppression read?
A: ≤ 0.026

Q: Which nonsense suppression does the source give for CUCUCGGUAGCCAAGUUGGUUUAAGGCGCAAGACUUUAAUUUAUCACUACGAACUCUUGAGAUCGGGCGUUCGACUCGCCCCCCGGAGAUUUUUUCCUCGAGCAA [A54C G84C] here?
A: ≤ 0.026

Q: With CUCUCGGUAGCCAAGUUGGUUUAAGGCGCAAGACUUUAAUUUAUCACUACGAACUCUUGAGAUCGGGCGUUCGACUCGCACCCGGGAGAUUUUUUCCUCGAGCAA [A54C C80A] as the variant, how does the nonsense suppression read?
A: ≤ 0.026

Q: With CUCUCGGUAGCCAAGUUGGUUUAAGGCGCAAGACUUUAAUUUAUCACUACGAACUCUUGAGAUCGGGCGUUCGACGCGCCCCCGGGAGAUUUUUUCCUCGAGCAA [A54C U76G] as the variant, how does the nonsense suppression read?
A: ≤ 0.026

Q: For CUCUCGGUAGCCAAGUUGGUUUAAGGCGCAAGACUUUAAUUUAUCACUACGAACUCUUGAGAUCGGGCGUUCGACUCGCCCCCGGGAGCUUUUUUCCUCGAGCAA [A54C A89C], which nonsense suppression is on record?
A: ≤ 0.026

Q: For CUCUCGGUAGCCAAGUUGGUUUAAGGCGCAAGACGUUAAUUUAUCACUACGAAAUCUUGAGAUCGGGCGCUCGACUCGCCCCCGGAAGAUUUUUUCCUCGAGCAA [U35G U70C G86A], which nonsense suppression is on record?
A: ≤ 0.026

Q: For CUCUCGGUAGCCAAGUUGGUUUAAGGCGCAAGACGUUAAUUUAUCACUACGAAAUCCUGAGAUCGGGCGUUCGACUCGCCCCCGGGAGAUUUUUUCCUCGAGCAA [U35G U57C], which nonsense suppression is on record?
A: ≤ 0.026

Q: Which nonsense suppression does the source give for CUCUCGGUAGCCAAGUUGGUUUAAGGCGCAAGACUUUAAUUUAUCACUACGAACCCUUGAGAUCGGGCGUUCGACUCGCCCCCGGGAGAUUUUUUCCUCGAGCAA [A54C U55C] here?
A: ≤ 0.026

Q: Which nonsense suppression does the source give for CUCUCGGUAGCCAAGUUGGUUUAAGGCGCAAGACUUUAAUUUAUCACUACGAACUCUUGAGAUCGGGCGUGCGACUCGCCCCCGGGAGAUUUUUUCCUCGAGCAA [A54C U71G] here?
A: ≤ 0.026

Q: With CUCUCGGUAGCCAAGUUGGUUUAAGGCGCAAGACUUUAAUUUAUCACUACGAACUCUUGAGAUCGGGCGUCCGACUCGCCCCCGGGAGAUUUUUUCCUCGAGCAA [A54C U71C] as the variant, how does the nonsense suppression read?
A: 0.0406

Q: With CUCUCGGUAGCCAAGUUGGUUUAAGGCGCAAGACGUUAAUUUAUCACUACGAAAUCUUGAGAUCGGGCGUCCGCCUCGCCCCCGGGAUAUUUUUUCCUCGAGCAA [U35G U71C A74C G88U] as the variant, how does the nonsense suppression read?
A: ≤ 0.026

Q: For CUCUCGGUAGCCAAGUUGGUUUAAGGCGCAAGACUUUAAUUUAUCACUACGAACUCUUGAGAUCGGGCGUUCGACGCGCCCCCGGGAGGUUUUUUCCUCGAGCAA [A54C U76G A89G], which nonsense suppression is on record?
A: ≤ 0.026

Q: Which nonsense suppression does the source give for CUCUCGGUAGCCAAGUUGGUUUAAGGCGCAAGACGUUAAUUUAUCACUACGAAAUCUUAAGAUCGGGCGUCCGACUCGCCCCCGGGAGAUUUUUUCCUCGAGCAA [U35G G59A U71C] here?
A: ≤ 0.026

Q: For CUCUCGGUAGCCAAGUUGGUUUAAGGCGCAAGACGUUAAUUUAUCACUACGAAAUCUUGAAAUCGGGCGUUCGACUCGCCCCCGGGAGAUUUUUUCCUCGAGCAA [U35G G61A], which nonsense suppression is on record?
A: ≤ 0.026

Q: For CUCUCGGUAGCCAAGUUGGUUUAAGGCGCAAGACGUUAAUUUAUCACUACGAAAUCUUGACAUCGGGCGUUCGACUCGCCCCCGGGAGAUUUUUUCCUCGAGCAA [U35G G61C], which nonsense suppression is on record?
A: ≤ 0.026

Q: With CUCUCGGUAGCCAAGUUGGUUUAAGGCGCAAGACGUUAAUUUAUCACUACGAAAUCUUGAGAUCGGGCGCUCGACUCGCCCCCGGGAGAUUUUUUCCUCGAGCAA [U35G U70C] as the variant, how does the nonsense suppression read?
A: ≤ 0.026

Q: Which nonsense suppression does the source give for CUCUCGGUAGCCAAGUUGGUUUAAGGCGCAAGACUUUAAUUUAUCACUACGAAGUCUUGCGAUCGGGCGUUCGACUCGCCCCCGGGAGAUUUUUUCCUCGAGCAA [A54G A60C] here?
A: ≤ 0.026

Q: Which nonsense suppression does the source give for CUCUCGGUAGCCAAGUUGGUUUAAGGCGCAAGACUUUAAUUUAUCACUACGAACUCUUGAGAUCGGGCGUUCGACUCGCCCCCGGGACAUUUUUUCCUCGAGCAA [A54C G88C] here?
A: ≤ 0.026

Q: For CUCUCGGUAGCCAAGUUGGUUUAAGGCGCAAGACUUUAAUUUAUCACUACGAACUCUUGAGAUCGGGCGUUCGACCCGCCCCCGGGUGAUUUUUUCCUCGAGCAA [A54C U76C A87U], which nonsense suppression is on record?
A: ≤ 0.026

Q: Which nonsense suppression does the source give for CUCUCGGUAGCCAAGUUGGUUUAAGGCGCAAGACUUUAAUUUAUCACUACGAACUCUUGAGAUCGGGCGUUCGACCCGCCCCCGGGGGAUUUUUUCCUCGAGCAA [A54C U76C A87G] here?
A: ≤ 0.026

Q: With CUCUCGGUAGCCAAGUUGGUUUAAGGCGCAAGACUUUAAUUUAUCACUACGAACUCCUGAAAUCGGGCGUUCGACUCGCCCCCGGGAGAUUUUUUCCUCGAGCAA [A54C U57C G61A] as the variant, how does the nonsense suppression read?
A: ≤ 0.026

Q: With CUCUCGGUAGCCAAGUUGGUUUAAGGCGCAAGACUUUAAUUUAUCACUACGAAGUCUUGAGAUCGGGCGUUCGUGUCGCCCCCGGGAGAUUUUUUCCUCGAGCAA [A54G A74U C75G] as the variant, how does the nonsense suppression read?
A: ≤ 0.026
